{"source": "patent US20250375475A1", "about": "(priority 2024, published 2025)", "tested_on": "CD86+ circulating phagocytes", "settings": "FIG. 4; Aβ1-40 rat models of Alzheimer's disease", "data": [{"substance": "^64Zn L-Aspartate", "values": [{"measurement": "relative number of CD86+ circulating phagocytes / CD86 expression", "value": "reduced CD86 expression"}]}]}
